{"source": "the supplement of paper PMC8728848", "binders": {"B1": {"name": "SP8524D-bot-399-27-399 (Bacteroides ovatus) (protein)", "chain": "DAKYDTLDTHAYIEEALSSTSQKVTVQATGESFTTLNVHLSNLSSTDNHYKLVTDQSVLDTYNHINGTGYIMLPKDYYTLPETITVKAGQYAADALSIALKAFSQEMMKSGESYALPVKLVLQDGSISPMENTGTFVILAESIIEFSAPMFVGAPSLKANKFTESPETYSQYTIEVRFQVANTADRDRAVFKNGGDDANFILLRFEDPQSDNENYKAHSLVQIVGRNRLYLNPSNSFKPNEWQHLALVCDGSNYRLYINGVDSGVLSIPTGATTFSDVNWFCLGDDSYSRWGNCKILMSEARIWSVVRSASQIQNNMTQVSPKSVGLEAYWRFNEGQGNVFEDATGKGHTLTTSATPTWIDGILSTDKSTEWK"}}, "test_in_all_cases": "glycan array binding signal (z-score within array); higher = stronger binding", "conditions_in_all_cases": "glycan notation: IUPAC condensed, linker removed", "key": {"[1]": {"molecular_target": "Neu5Ac(a2-3)Gal(b1-4)GlcNAc(b1-3)Gal(b1-4)GlcNAc(b1-3)Gal(b1-4)GlcNAc", "how_it_was_run": "(§1)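 Arrays were curated from the Consortium for Functional Glycomics database, 3228 in total, and kept only where the protein sequence was available. Binding is expressed as a within-array Z-score. This score was averaged across arrays of the same protein sequence at different concentrations or buffers and across linkers, and negative values can be read as non-binding.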"}, "[2]": {"molecular_target": "Neu5Ac(a2-3)Gal(b1-4)GlcNAc(b1-3)Gal(b1-4)GlcNAc(b1-3)Gal(b1-4)GlcNAc(b1-2)Man(a1-3)[Neu5Ac(a2-3)Gal(b1-4)GlcNAc(b1-3)Gal(b1-4)GlcNAc(b1-3)Gal(b1-4)GlcNAc(b1-2)Man(a1-6)]GalNAc", "how_it_was_run": "as §1"}, "[3]": {"molecular_target": "Neu5Ac(a2-3)Gal(b1-4)GlcNAc(b1-3)Gal(b1-4)GlcNAc(b1-3)GalNAc", "how_it_was_run": "as §1"}, "[4]": {"molecular_target": "Neu5Ac(a2-3)Gal(b1-4)GlcNAc(b1-3)Gal(b1-4)GlcNAc(b1-3)[Neu5Ac(a2-3)Gal(b1-4)GlcNAc(b1-3)Gal(b1-4)GlcNAc(b1-6)]GalNAc", "how_it_was_run": "as §1"}, "[5]": {"molecular_target": "Neu5Ac(a2-3)Gal(b1-4)GlcNAc(b1-3)Gal(b1-4)GlcNAc(b1-6)[Gal(b1-3)]GalNAc", "how_it_was_run": "as §1"}, "[6]": {"molecular_target": "Neu5Ac(a2-3)Gal(b1-4)GlcNAc(b1-3)Gal(b1-4)[Fuc(a1-3)]GlcNAc", "how_it_was_run": "as §1"}, "[7]": {"molecular_target": "Neu5Ac(a2-3)Gal(b1-4)GlcNAc(b1-3)GalNAc", "how_it_was_run": "as §1"}, "[8]": {"molecular_target": "Neu5Ac(a2-3)Gal(b1-4)GlcNAc(b1-3)[Neu5Ac(a2-3)Gal(b1-4)GlcNAc(b1-6)]GalNAc", "how_it_was_run": "as §1"}, "[9]": {"molecular_target": "Neu5Ac(a2-3)Gal(b1-4)GlcNAc(b1-6)GalNAc", "how_it_was_run": "as §1"}, "[10]": {"molecular_target": "Neu5Ac(a2-3)Gal(b1-4)GlcNAc(b1-6)[Gal(b1-3)]GalNAc", "how_it_was_run": "as §1"}, "[11]": {"molecular_target": "Neu5Ac(a2-3)Gal(b1-4)GlcNAc(b1-6)[Neu5Ac(a2-3)Gal(b1-3)]GalNAc", "how_it_was_run": "as §1"}, "[12]": {"molecular_target": "Neu5Ac(a2-3)Gal(b1-4)GlcNAc6S", "how_it_was_run": "as §1"}, "[13]": {"molecular_target": "Neu5Ac(a2-3)Gal(b1-4)[Fuc(a1-3)]GlcNAc", "how_it_was_run": "as §1"}, "[14]": {"molecular_target": "Neu5Ac(a2-3)Gal(b1-4)[Fuc(a1-3)]GlcNAc(b1-2)Man", "how_it_was_run": "as §1"}, "[15]": {"molecular_target": "Neu5Ac(a2-3)Gal(b1-4)[Fuc(a1-3)]GlcNAc(b1-3)Gal", "how_it_was_run": "as §1"}, "[16]": {"molecular_target": "Neu5Ac(a2-3)Gal(b1-4)[Fuc(a1-3)]GlcNAc(b1-3)Gal(b1-4)GlcNAc", "how_it_was_run": "as §1"}, "[17]": {"molecular_target": "Neu5Ac(a2-3)Gal(b1-4)[Fuc(a1-3)]GlcNAc(b1-3)Gal(b1-4)[Fuc(a1-3)]GlcNAc(b1-3)Gal(b1-4)[Fuc(a1-3)]GlcNAc", "how_it_was_run": "as §1"}, "[18]": {"molecular_target": "Neu5Ac(a2-3)Gal(b1-4)[Fuc(a1-3)]GlcNAc(b1-3)GalNAc", "how_it_was_run": "as §1"}, "[19]": {"molecular_target": "Neu5Ac(a2-3)Gal(b1-4)[Fuc(a1-3)]GlcNAc(b1-6)[Gal(b1-3)]GalNAc", "how_it_was_run": "as §1"}, "[20]": {"molecular_target": "Neu5Ac(a2-3)Gal(b1-4)[Fuc(a1-3)]GlcNAc(b1-6)[Neu5Ac(a2-3)Gal(b1-3)]GalNAc", "how_it_was_run": "as §1"}, "[21]": {"molecular_target": "Neu5Ac(a2-3)Gal(b1-4)[Fuc(a1-3)]GlcNAc6S", "how_it_was_run": "as §1"}, "[22]": {"molecular_target": "Neu5Ac(a2-3)Gal6S(b1-4)GlcNAc", "how_it_was_run": "as §1"}, "[23]": {"molecular_target": "Neu5Ac(a2-3)Gal6S(b1-4)[Fuc(a1-3)]GlcNAc", "how_it_was_run": "as §1"}, "Neu5Ac(a2-3)GalNAc": {"molecular_target": "Neu5Ac(a2-3)GalNAc", "how_it_was_run": "as §1"}, "[24]": {"molecular_target": "Neu5Ac(a2-3)GalNAc(b1-4)GlcNAc", "how_it_was_run": "as §1"}, "[25]": {"molecular_target": "Neu5Ac(a2-3)[GalNAc(b1-4)]Gal(b1-4)Glc", "how_it_was_run": "as §1"}, "[26]": {"molecular_target": "Neu5Ac(a2-3)[GalNAc(b1-4)]Gal(b1-4)GlcNAc", "how_it_was_run": "as §1"}, "[27]": {"molecular_target": "Neu5Ac(a2-3)[GalNAc(b1-4)]Gal(b1-4)GlcNAc(b1-3)GalNAc", "how_it_was_run": "as §1"}, "[28]": {"molecular_target": "Neu5Ac(a2-3)[Neu5Ac(a2-6)]GalNAc", "how_it_was_run": "as §1"}, "Neu5Ac(a2-6)Gal": {"molecular_target": "Neu5Ac(a2-6)Gal", "how_it_was_run": "as §1"}, "[29]": {"molecular_target": "Neu5Ac(a2-6)Gal(b1-3)GlcNAc(b1-3)[Gal(b1-4)GlcNAc(b1-6)]Gal(b1-4)Glc", "how_it_was_run": "as §1"}, "Neu5Ac(a2-6)Gal(b1-4)Glc": {"molecular_target": "Neu5Ac(a2-6)Gal(b1-4)Glc", "how_it_was_run": "as §1"}, "[30]": {"molecular_target": "Neu5Ac(a2-6)Gal(b1-4)GlcNAc", "how_it_was_run": "as §1"}, "[31]": {"molecular_target": "Neu5Ac(a2-6)Gal(b1-4)GlcNAc(b1-2)Man", "how_it_was_run": "as §1"}, "[32]": {"molecular_target": "Neu5Ac(a2-6)Gal(b1-4)GlcNAc(b1-2)Man(a1-3)Man(b1-4)GlcNAc(b1-4)GlcNAc", "how_it_was_run": "as §1"}, "[33]": {"molecular_target": "Neu5Ac(a2-6)Gal(b1-4)GlcNAc(b1-2)Man(a1-3)[Gal(b1-4)GlcNAc(b1-2)Man(a1-6)]Man(b1-4)GlcNAc(b1-4)GlcNAc", "how_it_was_run": "as §1"}, "[34]": {"molecular_target": "Neu5Ac(a2-6)Gal(b1-4)GlcNAc(b1-2)Man(a1-3)[GlcNAc(b1-2)Man(a1-6)]Man(b1-4)GlcNAc(b1-4)GlcNAc", "how_it_was_run": "as §1"}, "[35]": {"molecular_target": "Neu5Ac(a2-6)Gal(b1-4)GlcNAc(b1-2)Man(a1-3)[GlcNAc(b1-4)][Neu5Ac(a2-6)Gal(b1-4)GlcNAc(b1-2)Man(a1-6)]Man(b1-4)GlcNAc(b1-4)GlcNAc", "how_it_was_run": "as §1"}}, "note": "The other results are listed elsewhere or left out."}
{"binder": "B1", "values": [{"measurement": "glycan array binding signal (z-score)", "setting": "[1]", "value": -0.182}, {"measurement": "glycan array binding signal (z-score)", "setting": "[2]", "value": 0.421}, {"measurement": "glycan array binding signal (z-score)", "setting": "[3]", "value": 0.139}, {"measurement": "glycan array binding signal (z-score)", "setting": "[4]", "value": -0.1}, {"measurement": "glycan array binding signal (z-score)", "setting": "[5]", "value": -0.302}, {"measurement": "glycan array binding signal (z-score)", "setting": "[6]", "value": -0.349}, {"measurement": "glycan array binding signal (z-score)", "setting": "[7]", "value": 0.237}, {"measurement": "glycan array binding signal (z-score)", "setting": "[8]", "value": -0.17}, {"measurement": "glycan array binding signal (z-score)", "setting": "[9]", "value": -0.302}, {"measurement": "glycan array binding signal (z-score)", "setting": "[10]", "value": -0.279}, {"measurement": "glycan array binding signal (z-score)", "setting": "[11]", "value": -0.033}, {"measurement": "glycan array binding signal (z-score)", "setting": "[12]", "value": -0.046}, {"measurement": "glycan array binding signal (z-score)", "setting": "[13]", "value": -0.144}, {"measurement": "glycan array binding signal (z-score)", "setting": "[14]", "value": -0.261}, {"measurement": "glycan array binding signal (z-score)", "setting": "[15]", "value": -0.297}, {"measurement": "glycan array binding signal (z-score)", "setting": "[16]", "value": 0.136}, {"measurement": "glycan array binding signal (z-score)", "setting": "[17]", "value": -0.407}, {"measurement": "glycan array binding signal (z-score)", "setting": "[18]", "value": 0.96}, {"measurement": "glycan array binding signal (z-score)", "setting": "[19]", "value": 0.604}, {"measurement": "glycan array binding signal (z-score)", "setting": "[20]", "value": -0.141}, {"measurement": "glycan array binding signal (z-score)", "setting": "[21]", "value": 0.336}, {"measurement": "glycan array binding signal (z-score)", "setting": "[22]", "value": -0.272}, {"measurement": "glycan array binding signal (z-score)", "setting": "[23]", "value": -0.221}, {"measurement": "glycan array binding signal (z-score)", "setting": "Neu5Ac(a2-3)GalNAc", "value": -0.038}, {"measurement": "glycan array binding signal (z-score)", "setting": "[24]", "value": -0.22}, {"measurement": "glycan array binding signal (z-score)", "setting": "[25]", "value": 0}, {"measurement": "glycan array binding signal (z-score)", "setting": "[26]", "value": -0.104}, {"measurement": "glycan array binding signal (z-score)", "setting": "[27]", "value": 0.38}, {"measurement": "glycan array binding signal (z-score)", "setting": "[28]", "value": -0.002}, {"measurement": "glycan array binding signal (z-score)", "setting": "Neu5Ac(a2-6)Gal", "value": -0.011}, {"measurement": "glycan array binding signal (z-score)", "setting": "[29]", "value": -0.08}, {"measurement": "glycan array binding signal (z-score)", "setting": "Neu5Ac(a2-6)Gal(b1-4)Glc", "value": 0.276}, {"measurement": "glycan array binding signal (z-score)", "setting": "[30]", "value": -0.31}, {"measurement": "glycan array binding signal (z-score)", "setting": "[31]", "value": -0.111}, {"measurement": "glycan array binding signal (z-score)", "setting": "[32]", "value": -0.221}, {"measurement": "glycan array binding signal (z-score)", "setting": "[33]", "value": -0.299}, {"measurement": "glycan array binding signal (z-score)", "setting": "[34]", "value": -0.361}, {"measurement": "glycan array binding signal (z-score)", "setting": "[35]", "value": 0.589}]}
